Laboratory results from PubChem BioAssay AID1159614 (National Center for Advancing Translational Sciences (NCATS), 2016).
The whole screen tested about 45,000 compounds, of which about 65 (0.1%) were called active. Calls follow the shape of the dose curve; as a rule, active = well fitted activation curve with a large enough effect; inconclusive = small, poorly fitted or top-dose-only effect; inactive = no such curve, though single readings can be large or run the other way. The list shows a part of the results.

The molecules below were run against Galactocerebrosidase (Homo sapiens) (UniProt P54803) (assay: A Novel Cell-Based Assay to Identify Small Molecules for B -Galactocerebrosidase). Conditions: 145M-Twi-hGALC-G270D cells (Twitcher mouse brain line with human GALC G270D), HMU-beta-Gal fluorescence, 48 h; series mostly up to 57.5 µM; activation: at the top concentration.
Chain of UniProt P54803 (P54803 whole entry, looked up): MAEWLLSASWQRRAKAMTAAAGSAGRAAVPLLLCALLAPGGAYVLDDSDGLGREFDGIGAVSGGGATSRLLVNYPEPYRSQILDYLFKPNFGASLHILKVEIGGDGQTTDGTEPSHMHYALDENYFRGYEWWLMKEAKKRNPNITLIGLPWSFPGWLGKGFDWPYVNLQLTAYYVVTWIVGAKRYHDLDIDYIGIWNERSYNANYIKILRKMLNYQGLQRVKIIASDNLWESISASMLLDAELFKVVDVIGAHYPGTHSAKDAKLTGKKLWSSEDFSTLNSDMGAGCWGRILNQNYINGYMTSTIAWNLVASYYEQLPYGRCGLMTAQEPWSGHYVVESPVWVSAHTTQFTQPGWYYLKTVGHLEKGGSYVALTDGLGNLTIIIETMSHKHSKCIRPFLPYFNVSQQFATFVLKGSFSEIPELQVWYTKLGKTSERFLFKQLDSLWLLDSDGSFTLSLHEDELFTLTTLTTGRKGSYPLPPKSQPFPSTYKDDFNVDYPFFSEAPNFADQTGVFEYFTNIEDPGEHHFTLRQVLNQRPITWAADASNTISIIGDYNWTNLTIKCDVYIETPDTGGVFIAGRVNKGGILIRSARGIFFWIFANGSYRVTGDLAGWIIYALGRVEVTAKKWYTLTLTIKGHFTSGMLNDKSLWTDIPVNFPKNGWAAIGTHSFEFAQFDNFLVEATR
How it was run: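 Fluorescence readout: HMU-β-gal cleavage by mutant GALC (0.1 mM final, citrate/phosphate pH 5.2 with 1 mg/mL taurocholate), stopped with carbonate/bicarbonate plus Triton X-100. Cells: murine Twitcher 145M-Twi expressing human G270D GALC; qHTS for activators.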
Also: 0% is about no effect; nearly all actives have a fitted effect of over 65% in size.

activation, inactive:
Cc1ccc(Oc2c(C(F)(F)F)oc3c(CN4CCCCC4)c(O)ccc3c2=O)cc1 -11.8%
CCOc1cccc2cc(-c3nc(-c4ccccc4C)no3)c(=O)oc12 -7.93%
Cc1cc(F)ccc1NC(=O)CCS(=O)(=O)c1ccc2c(c1)NC(=O)CO2 -9.92%
O=C(Nc1ccc(Cl)cc1)C1CCCN(S(=O)(=O)c2ccc3[nH]c(=O)ccc3c2)C1 (stereo not given) -0.566%
CCC(C(=O)Nc1ccc(C(=O)OC)cc1)n1c(=O)c(-c2ccccc2NC(C)=O)nc2ccccc21 (stereo not given) -27.5%
CCOC(=O)c1cccc(NC(=O)c2oc3c(c2C)-c2[nH]ncc2CC3)c1 -8.11%
CCCN(C(=O)c1cc2c(s1)-c1ccccc1OC2)c1ccccc1F -6.17%
CCc1ccccc1NS(=O)(=O)c1ccc2[nH]cc(C(=O)N3CCCCC3)c(=O)c2c1 -6.33%
COc1cc(CN(C(=O)Nc2ccccc2)c2ccccn2)cc(OC)c1OC -10.7%
COc1cccc(CNC(=O)C2CCCN(S(=O)(=O)c3ccc4c(ccn4C)c3)C2)c1 (stereo not given) -24.1%
Cc1nc2c(-c3ccccc3)c(C)nn2c(C)c1CCC(=O)NC(C)c1ccccc1 (stereo not given) -38%
CCCC(=O)Nc1cc(C)c(O)c(-c2nc3ncccc3o2)c1 -5.12%
Cc1ccc(NC(=O)c2cc(S(=O)(=O)NCCC3=CCCCC3)ccc2F)cc1F -10.2%
COc1ccc(Cl)cc1NC(=O)c1ccc2nc(Cc3ccccc3)oc2c1 -11.9%
CC(C)CCNC(=O)c1cccc(Nc2nc3ccccc3n3nnnc23)c1 -28.4%
CCc1ccc(C(=O)c2cn(CC(=O)Nc3ccc(F)c(F)c3)c3cc(OC)c(OC)cc3c2=O)cc1 -32.5%
CCCCNC(=O)C1CCCN(Cc2nc(-c3ccc(Cl)cc3)oc2C)C1 (stereo not given) -10.5%
Cc1cc(NC(=O)c2ccc(Br)o2)cc(-c2nc3ccccc3o2)c1O 2.38%
Cc1ccc(-n2nc(C(=O)N3CCN(c4cc(Cl)ccc4C)CC3)c(=O)n(C)c2=O)cc1 -4.18%
Cc1cccc(CNC(=O)c2oc3c(c2C)-c2nn(Cc4ccccc4Cl)cc2CC3)c1 -23.7%
Cc1c(Cl)cccc1NC(=O)CSc1ncnc2c1sc1ccccc12 -3.36%
COc1cc(NC(=O)CCn2c(-c3ccccc3)cc(C(C)=O)c2C)cc(OC)c1 -13.9%
Cc1cc(C)c(NC(=O)CSc2ccnc(=O)[nH]2)c(C)c1 -13.9%
COc1ccc(NC(=O)C(NS(=O)(=O)c2ccc3c(c2)CCCC(=O)N3)C(C)C)c(OC)c1 (stereo not given) 0.317%
O=C(COc1ccccc1)NCc1ccc2c(c1)CCN2C(=O)c1ccc(F)cc1 -3.08%
Cc1ccc(Cn2c(=O)c3cccnc3n(CC(=O)Nc3cccc(C(F)(F)F)c3)c2=O)cc1 -21.1%
Cc1ccc(-n2ncc3c(N4CCCCCC4)ncnc32)cc1 -8.45%
Cc1cc(OCC(=O)Nc2ccc(-c3nc4cc(Cl)ccc4o3)cc2)cc(C)c1Cl -15.8%
CCc1ccc(C2CC(=O)c3c([nH]c(C(=O)OCC4CCCCC4)c3C)C2)cc1 (stereo not given) -21.9%
NS(=O)(=O)c1ccc(CCNC(=O)C2COc3ccccc3C2)cc1 (stereo not given) -9.81%
COc1ccc(NS(=O)(=O)c2cc3[nH]c(=O)c(=O)[nH]c3cc2C)cc1Cl 3.65%
Cn1cc(S(=O)(=O)N2CCCCCC2)cc1C(=O)N1CCN(c2ccc(F)cc2)CC1 3.34%
CCOc1ccc(/C=C/c2nc(C#N)c(N3CCN(c4ccc(OC)cc4)CC3)o2)cc1 -6.24%
CCC(=O)N1CCc2cc(Br)cc(S(=O)(=O)CCC(=O)NCCc3ccc(OC)c(OC)c3)c21 -4.18%
CCOc1ccc(NC(=O)C(=O)NCCc2csc(-c3ccc(F)cc3)n2)cc1 -12.2%
CCc1cccc(NC(=O)Nc2ccc3c(c2)N(C)C(=O)c2ccccc2S3)c1 -9.62%
CCN(CC)CCOc1ccc2c(c1)C(=O)c1cc(OCCN(CC)CC)ccc1-2 -8.89%
CN(C(=O)C1CCCN(c2ncnc3c2nc2n3CCCCC2)C1)c1ccccc1F (stereo not given) -18.6%
CCN(CC)CC(C)CNC(=O)CN1C(=O)CSc2ccc(S(=O)(=O)N3CCOCC3)cc21 (stereo not given) -0.416%
COc1cc(OC)c(NC(=O)CN2C(=O)CCn3nc(-c4cccn4C)cc32)cc1Cl 1.38%
Cc1ccc(NC(=O)Cc2c(C(=O)O)c(C)cn2C)cc1Cl -10.5%
CC(C)OCCCn1c(SCc2ccccc2C#N)nc2c(sc3ccccc32)c1=O -9.3%
CCC(=O)N1CCc2cc(S(=O)(=O)NC(Cc3ccccc3)C(=O)Nc3ccc(C)cc3)ccc21 (stereo not given) -8.72%
Cc1ccc(NC(=O)c2sc3nc(-c4cc5ccccc5oc4=O)[nH]c(=O)c3c2C)c(C)c1 -10.4%
COc1cc(C(=O)Nc2cc3c(cc2C)n(C)c(=O)c(=O)n3C)cc(OC)c1OC -19.6%
COc1ccccc1-c1noc(-c2ccc(N3CCC(C)CC3)c([N+](=O)[O-])c2)n1 -23%
CCOc1ccc(-c2cc(OC(=O)c3ccc(F)cc3)c3c(C)oc(C)c3c(=O)c2)cc1 -11.7%
CCOc1ccc(-n2c(SCc3ccc(C(=O)OC)o3)nc3c([nH]c4ccccc43)c2=O)cc1 -10.3%
CCN1C(=O)c2ccccc2Sc2ccc(NC(C)=O)cc21 -30.4%
COc1cc(C(=O)Nc2cc(C)ccc2OCc2cc(=O)n3c(C)csc3n2)cc(OC)c1OC -3.66%
O=C(CC1Sc2ccc(C(F)(F)F)cc2NC1=O)Nc1ccc(Cl)c(C(F)(F)F)c1 (stereo not given) -13.6%
O=C(Nc1ccc(Br)cc1F)c1cc(S(=O)(=O)NCc2ccc(F)cc2)ccc1F -10.1%
COc1ccc(NC(=O)c2cc3c(s2)-c2c(C)cccc2OC3)c(OC)c1 -10.9%
CCOC(=O)C1CCCN(S(=O)(=O)c2ccc3c(c2)CCCN3C(C)=O)C1 (stereo not given) -12.5%
COc1ccc(CCNC(=O)c2cc3c(-c4ccccc4F)nn(C)c3s2)c(OC)c1 -6.2%
Fc1ccc(-n2cc(-c3ccccc3)c3c(NC4CCCCC4)ncnc32)cc1 -4.04%
CCOC(=O)c1cccc(NC(=O)c2cc3c(=O)n(Cc4ccccc4)ccc3nc2C)c1 -31.1%
CSc1ncc(C(=O)Nc2ccccc2C(=O)c2ccccc2)c(C(F)(F)F)n1 2.23%
CCc1nn(CC(=O)NCCCN(CC)CC)c(=O)c2cc3sc(C)cc3n12 -12.3%
CCCCNc1nc(Oc2ccc(=O)[nH]n2)nc(N(C)C)n1 6%
C=C(C)Cn1c(=O)c2c(nc3n2CCN3c2ccc(CC)cc2)n(C)c1=O -2.8%
Fc1ccc(-c2nc(Nc3cccc(Cl)c3)nc3c2COc2ccccc2-3)cc1 -7.27%
CCn1c2ccccc2c2nnc(N3CCN(c4cc(C)ccc4C)CC3)nc21 -8.1%
O=C(CCC1N=C2c3ccccc3N=C(SCc3ccccc3F)N2C1=O)NC1CCCCC1 (stereo not given) -17.9%
Cc1ccc(-n2ncc3c(NCCCN4CCOCC4)ncnc32)cc1 -10.3%
COc1cccc(-n2c(=O)c3c(C)c(C(=O)N(C)C)sc3n(Cc3ccc(F)cc3Cl)c2=O)c1 -16.7%
CCOc1ccccc1NC(=O)c1cc2c(Cl)nc3ccccc3c2s1 1.82%
COc1ccc(NC(=O)C2Cc3ccccc3N2C(=O)c2ccccc2)c(OC)c1 (stereo not given) -0.656%
COc1ccc(N2CCN(S(=O)(=O)c3ccc4c(c3)CC(C)N4C(C)=O)CC2)cc1 (stereo not given) -15.5%
Cn1c(=O)n(-c2ccc(F)c(Cl)c2)c(=O)c2sc3ccccc3c21 -0.0399%
CCOC(=O)c1c(Nc2ccc(C)cc2)nnc(-c2ccccc2)c1-c1ccccc1 -36.4%
O=C1CC2(CCCC2)CC(=O)N1 -4.45%
CC1=C(C(=O)OC2CCCCCC2)C(c2c(F)cccc2Cl)CC(=O)N1 (stereo not given) 6.1%
Cc1ccc(Cl)cc1NC(=O)c1oc2c(c1C)-c1[nH]ncc1CC2 -31.4%
COc1ccc(N(Cc2cccs2)C(=O)COc2cccc(Cl)c2)cc1 -8.67%
CCN(CCCNC(=O)c1c(C)oc2ncn(CC(C)C)c(=O)c12)Cc1ccccc1 -7.64%
COC(=O)CCSc1nc2sc3c(c2c(=O)n1Cc1ccccc1)CCC(C(C)(C)C)C3 (stereo not given) -8.84%
CCc1ccccc1NS(=O)(=O)c1ccc(OC)c2ncccc12 6.15%
CCN(CC)c1ccc(C(=C2C=CC(=[N+](CC)CC)C=C2)c2cc(S(=O)(=O)O)ccc2S(=O)(=O)[O-])cc1 -9.95%
CCC1CCCCN1C(=O)c1ccc2c(c1)N(Cc1cccc(Cl)c1)C(=O)c1ccccc1S2(=O)=O (stereo not given) -5.59%
Cc1ccc(NC(=O)CSc2nc3ccccc3c3nc(CCn4c(C)nc5ccccc54)nn23)cc1F -12.9%
Cc1c2cnn(-c3ccccc3)c(=O)c2c(C)n1CCCC(=O)Nc1ccc(F)cc1F -11.2%
O=C(c1ccc2c(Cl)c3c(nc2c1)CCCC3)N1CCN(c2ccccc2)CC1 7.89%
CCCc1nnc(NC(=O)c2nc(S(=O)(=O)Cc3ccc(C)cc3)ncc2Cl)s1 -13.2%
CC(C)(C)C1CCc2onc(C(=O)Nc3sc4c(c3C(N)=O)CCCC4)c2C1 (stereo not given) -22.8%
NC(=O)c1cc(S(=O)(=O)NCC2CCC(C(=O)Nc3cccc(Cl)c3)CC2)cs1 (stereo not given) -15.8%
Cc1c(Cl)cccc1NC(=O)CCS(=O)(=O)c1ccc(Br)s1 -10.5%
CCOC(=O)c1cc(-c2ccccc2)n(CCCC(=O)Nc2ccc(CC)cc2)c1C 0.948%
CCOc1ccccc1NS(=O)(=O)c1c(-c2ccc(C)cc2)csc1C(=O)OC -5.71%
Fc1ccc(CNc2ncnc3c2c(-c2ccccc2)cn3-c2ccccc2)cc1 -7.52%
Cn1c(=O)n(C)c2cc(S(=O)(=O)Nc3ccccc3C(=O)O)ccc21 -18.1%
COCCNC(=O)c1ccc2c(c1)N(Cc1cccc(Cl)c1)C(=O)c1ccccc1S2=O (stereo not given) -4.11%
CN(C(=O)CSc1nnc2[nH]c(=O)cc(-c3ccccc3)n12)c1ccccc1 -6.36%
Cc1ccc(C)c(NC(=O)CCNS(=O)(=O)c2ccc3c(c2)CCCC(=O)N3)c1 -11.9%
CCOC(=O)c1cc(-c2ccccc2)n(CC(=O)NCc2ccccc2OC)c1C -11.1%
